The record followed here is the supplement of paper PMC5919970.

Shown are results outside the selection of lowest values, which stands elsewhere.

Experiment [1] has as its system TYKNU. In words: fractional viability relative to vehicle; TYKNU is a high-grade serous ovarian cancer line; higher = less growth inhibition. Conditions: 72 h, genotype: OPA1 knockout (sgOPA1 #2). The gist of the method:
(§1)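 Drug treatment lasted 72 h, with cells grown at 37 °C in 5% CO2 in RPMI 1640 supplemented with 10% FBS. Beforehand, TYKNU control cells or their lentiCRISPRv2 knockout derivatives had been seeded at 500 cells per well into drug-stamped 384-well plates carrying a ~2100-compound library at 2 or 10 μM, in duplicate. Viability came from Cell Titer Glo luminescence, with averaged duplicate treatment wells normalised to duplicate control wells in the same plate position.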

The test system of experiment [2] is TYKNU. Described as above. Conditions: 72 h. In a few lines:
as §1

[3] abbreviates: 2uM, genotype: DNM1L knockout (sgDNM1L #1).
[4] abbreviates: 2uM, genotype: sgCTRLA1 (non-targeting control).
[5] abbreviates: 10uM, genotype: DNM1L knockout (sgDNM1L #1).
Where [6] appears, read: 10uM, genotype: sgCTRLA1 (non-targeting control).

As for `Cc1ccc(C(=O)NCCCCCC(=O)Nc2ccccc2N)cc1`, the fractional viability in the experiment on TYKNU [1] (2uM) amounted to 0.808; with TYKNU [1] (10uM), 0.42; with TYKNU [2] (setting [3]), 0.755; in the experiment with TYKNU [2] (setting [4]), 0.952; in the experiment with TYKNU [2] (setting [5]), 0.333; in the experiment with TYKNU [2] (setting [6]), 0.58.

Take `Cc1ccccc1-n1c(Cn2nc(-c3cccc(O)c3)c3c(N)ncnc32)nc2cccc(C)c2c1=O`: the fractional viability in the experiment on TYKNU [1] (2uM) was 1.07; with TYKNU [1] (10uM), 1.06; in the experiment on TYKNU [2] (setting [3]), 1; in the experiment on TYKNU [2] (setting [4]), 1.11; in the experiment on TYKNU [2] (setting [5]) it was 0.748; with TYKNU [2] (setting [6]), 1.

Consider `CN1C2CCC1CC(OC(=O)C(O)c1ccccc1)C2` (centres undefined) [Homatropine Bromide], for which the fractional viability is 1.11 with TYKNU [1] (2uM); 0.858 in the experiment on TYKNU [1] (10uM); 1.14 in the experiment on TYKNU [2] (setting [3]); 1.19 with TYKNU [2] (setting [4]); 0.855 in the experiment with TYKNU [2] (setting [5]); 1.13 in the experiment on TYKNU [2] (setting [6]).

`Cc1nc2c(-c3cnc(N)nc3)nc(N3CCOCC3)nc2n1C(C)C`: the fractional viability in the experiment with TYKNU [1] (2uM) was 0.445; in the experiment with TYKNU [1] (10uM), 0.35; in the experiment on TYKNU [2] (setting [3]) it was 0.191; in the experiment on TYKNU [2] (setting [4]), 0.212; with TYKNU [2] (setting [5]), 0.177; in the experiment with TYKNU [2] (setting [6]), 0.16.
